# Test results reported in ChEMBL document CHEMBL1157539, “Thousands of chemical starting points for antimalarial lead identification” (Nature, 2010).
# Over roughly 13,000 compounds, “IFI” has its median near 4; the highest 2% begin near 17. This is one part of the list.
# Test: GSK_TCMDC: Inhibition Frequency Index (IFI). The number of non-kinase HTS assays where a compound showed > 50 % inhibition, expressed as a percentage of the number of such assays in which the compound was tested (-0 is zero)
# Assay type: functional
row,SMILES,IFI
1,CCN(CCCN1CCCCC1)c1cc(C)nc(Nc2cc(C)ccc2C)n1,2.56%
2,CC(C)(C)OC(=O)NCc1ccc(Nc2nnc(-c3ccc(OCC(=O)NCc4cc(C(F)(F)F)cc(C(F)(F)F)c4)c([N+](=O)[O-])c3)o2)cc1,8.45%
3,CS(=O)(=O)CCNCc1cccc(-c2cc3nccc(Nc4ccc(Oc5ccccc5)cc4)c3cc2Cl)c1,2.16%
4,O=C(Nc1ccc(C(F)(F)F)cc1)NC1CCN(CCCCCNC(=O)C2CC2c2ccc(Cl)c(Cl)c2)CC1 (stereo not given),11.1%
5,O=C(Nc1cccc2ccccc12)N1CCC(NS(=O)(=O)c2cccc(C(F)(F)F)c2)CC1,1.47%
6,Cc1cc(NCCC(=O)Nc2ccccc2)nc(NCCc2cccnc2)n1,2.44%
7,CCCCCNC(=N)c1ccc(OCCCCCOc2ccc(C(=N)NCCCCC)cc2)cc1,5%
8,Cc1cc(N[C@@H](Cc2ccccc2)C(=O)NCCOc2ccccc2)nc(NCC2CCCCC2)n1,16.7%
9,COc1c(C2CCN(CCCCNC(=O)c3ccc(-c4ccc(NC(=O)C(F)(F)F)cc4)cc3)CC2)ccc2c1CCCC2,9.92%
10,Fc1ccc2[nH]c(-c3cccc(-c4ccc(CN5CCC(CCN6CCCCC6)CC5)cc4)c3)nc2c1,8.33%
11,O=C(Nc1cccc(-c2nn3ccccc3c2-c2ccnc(Nc3ccccc3)n2)c1)c1c(F)cccc1F,4.42%
12,COc1ccc(C=CC(=O)NC(=O)c2ccccc2OC(=O)c2ccccc2)cc1OC,7.25%
13,CC[C@H](C)CNC(=O)c1ccnc(-c2ccc(CN3CCC(N4CCCC4)CC3)cc2)c1,1.61%
14,CC(C)(C)NC(=O)C(c1ccc(F)cc1)N(C(=O)c1ccc(CN2CCOCC2)o1)c1ccc(C2CCCCC2)cc1 (stereo not given),5.04%
15,CCc1c(CCNCCCCCCNCCc2ccc(OC)c(OC)c2CC)ccc(OC)c1OC,6.47%
16,C=CCNC(CCCCC)c1ccc(OCCOc2ccc(C(CCCCC)NCC=C)cc2)cc1 (stereo not given),18.3%
17,O=C(NC1CCCCN(Cc2ccc3c(c2)OCCO3)C1)c1cc(-c2ccccc2F)cs1 (stereo not given),1.96%
18,O=C1C(c2ccccc2)=C(Nc2ccc([N+](=O)[O-])cc2)c2ccccc21,3.03%
19,CC[C@H](C)CNC(=O)c1cncc(-c2cccc(CN(C)C3CCN(C)CC3)c2)c1,-0%
20,CCN(CC)CCCNc1nccc(N2CCc3ncnc(Nc4ccc(OCc5cccc(F)c5)c(Cl)c4)c3C2)n1,16.1%
21,O=S(=O)(/C=C/c1ccccc1)N(Cc1ccc(-c2ccc(CNCCOc3ccccc3)cc2)cc1)CC1CCCCN1 (stereo not given),12.4%
22,COc1cc2/c(=N/c3ccc(Br)cc3F)nc[nH]c2cc1OCC1CCN(C)CC1,7.25%
23,O=C(Nc1cccc(C(F)(F)F)c1)N1CCOC(CCN2CCC3(CCc4ccccc43)CC2)(c2ccc(Cl)c(Cl)c2)C1 (stereo not given),6.71%
24,COc1cc(Nc2ccnc3ccc(C(C)(C)C)cc23)cc(OC)c1OC,0.75%
25,COc1cccc(-c2ccc3ccnc(N)c3c2)c1,7.87%
26,Nc1ccc2[nH]cc(C3CCN(CC4CCC(NC(=O)/C=C/c5ccc(Cl)c(Cl)c5)CC4)CC3)c2n1 (stereo not given),5.56%
27,CCOc1ccc(C(C)NC(=O)c2ccc(OC)c(Br)c2)cc1OCC (stereo not given),2.08%
28,COc1ccc(Nc2nccc(NCCNC(=O)Nc3cc(C)ccc3C)n2)cc1,4.62%

row,SMILES,IFI
1,COc1cc(C)cc(CN2CCC(Cc3ccccc3)CC2)c1O,0.84%
2,N=C(N)Nc1nc(CCCCCCCCc2csc(NC(=N)N)n2)cs1,10.1%
3,O=C(N1CCN(c2ccnc3cc4c(cc23)N(Cc2ccccc2)CC4)CC1)C(F)(F)F,5.67%
4,COc1cccc2c(Nc3ccccc3C)nc(Nc3ccccc3C)nc12,5.97%
5,CCN(CC)CCCC(C)Nc1c2ccccc2nc2ccccc12 (stereo not given),0%
6,COc1ccc(CC2(c3ccc(F)cc3)N=C(N)N(CCCc3ccccc3)C2=O)cc1 (stereo not given),16.7%
7,CCOc1cc(C(=O)NC2CC(C)(C)NC(C)(C)C2)ccc1-c1cc2cc(Cl)c(Cl)cc2[nH]1,6.94%
8,O=C(Nc1ccc(Br)cc1)c1cc(Br)ccc1NS(=O)(=O)c1cc(C(F)(F)F)cc(C(F)(F)F)c1,19.9%
9,CN(Cc1cccc(F)c1)C1CCCN(c2cc(NC(=O)c3ccccc3)ccn2)C1 (stereo not given),-0%
10,Cc1ccc(C(=O)N2CCN(Cc3nccs3)CC2)cc1,0%
11,Clc1ccc(Nc2nc(Nc3ccc(Cl)c(Cl)c3)nc(Sc3nc4ccccc4[nH]3)n2)cc1Cl,0.72%
12,O=C(Nc1ccc(-c2nc3ccccc3[nH]2)cc1)c1cccc([N+](=O)[O-])c1,1.46%
13,O=C(Nc1ccc(OC2CCN(Cc3ccsc3)C2)c(Cl)c1)c1cccs1 (stereo not given),-0%
14,CCCCCC(C)N/C(=N/c1ccccc1Br)Nc1ccc([N+](=O)[O-])cc1O (stereo not given),6.47%
15,Nc1c(Cl)cc(C(O)CNCCCCCCOCCc2ccc(CO)s2)cc1Cl (stereo not given),3.08%
16,CN(C)CCCc1cc2c(cc1Cl)CCN2C(=O)Nc1ccc(-c2ccncc2)c2ccccc12,1.54%
17,COc1ccc(CNCc2cccc(-c3ccc(-c4nc5cc(C(F)(F)F)ccc5[nH]4)cc3)c2)cc1,12.5%
18,CC(Cc1ccc(OCCCCOc2ccccc2)cc1)NCCc1ccc(Oc2ccccc2)cc1 (stereo not given),18.2%
19,O=C(C1COc2ccccc2O1)N(CCCn1ccnc1)Cc1csc(-c2ccc(CNCc3ccccc3)cc2)n1 (stereo not given),2.74%
20,CC(C)CNCc1cccc(-c2cccc(CN(CCN(C)C)C(=O)NCCc3ccccc3)c2)c1,5.11%
21,CCN(CCCN1CCCCC1)c1cc(C)nc(Nc2ccc(C(F)(F)F)cc2)n1,1.28%
22,O=C(NC1CCCCC1)N(Cc1ccc(-c2cccc(CNC3CCCC3)c2)cc1)C1CCN(Cc2ccccc2)CC1,8.46%
23,O=C(Nc1ccc(C(F)(F)F)cc1)c1cccc(S(=O)(=O)NC2CCN(CC3CCCCC3)C2)c1 (stereo not given),14.5%
24,CCN(CC)C(C)(C)CN(Cc1ccc(-c2ccc(C(F)(F)F)cc2)cc1)C(=O)Cn1c(CCc2cccc(F)c2F)nc(=O)c2ccccc21,6.94%
25,OC(c1cccc(OCc2ccccc2)c1)C1CN(CCc2ccccc2)CCC1(O)c1ccccc1 (stereo not given),7.03%
26,CC(C)(C)c1ccc(CN2CCC(NC(=O)c3ccc(-c4cccc(C(F)(F)F)c4)s3)CC2)cc1,13%
27,COc1cc2nc(NCC3CCN(C(=O)c4ccc(-c5ccc(C(=O)N(C)C)cc5C)cc4)CC3)nc(N)c2cc1OC,3.54%
